In the supplement of paper PMC11417369:
This is one part of the list.

tested on: PfSIP2 AP2 domain 1 (GST-tagged); experiment: gcPBM binding intensity (ln(normalized median fluorescence intensity)); higher = stronger DNA binding
Outline: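 Binding intensity values are the highest Masliner-normalised natural-log median intensity among replicate spots of either probe orientation. The binding step lasted 1 h in 1× PBS with 1% milk, 0.2 mg/ml BSA, 0.5% salmon testes DNA and 0.03% Triton X-100, using GST-tagged P. falciparum DNA-binding domains expressed in E. coli on an Agilent 4 × 180k array of primer-extended double-stranded 36-bp intergenic genomic probes plus negative controls. Alexa488 anti-GST antibody and a 488 nm scan detected bound protein.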

Point of comparison: “AAAATAAATATAAAATGTACTTATATATATATATAT [XGTACX_site7803]”, “gcPBM binding intensity (ln)” value 9.08. Against it:
- AAATATATTTTTTTTTGTACTCAAAAAGAAAAAAAA [XGTACX_site8540] — lower, 7.02
- ATAAAATTATATACTCGTACACAAAAAAAAAAAATA [XGTACX_site6035] — lower, 6.91
- AAAAATTGAATGATGTGTACTTAAAAGAATATAGAA [XGTACX_site6588] — lower, 7.06
- TATATAATAACATATGCATGCAAGTAATATAACCAA [TGCATGCA_site324] — lower, 7.38
- TATAATATATATGTAACACACAAAAGTTATATACTT [CACACA_site2868] — lower, 7.1
- ATATATTATATTTAAGTGCATTAATTAAAATGCTTA [GTGCAC_site9403] — lower, 7.93
- AAAAAAAATCAGACAGGTACACATTCCATGTTCAAA [XGTACX_site5380] — lower, 6.92
- CATTAATATATATATAGTACATATACACCTTCATTA [XGTACX_site8473] — lower, 7
- ATAATTAAATAAAAAAGTACACATACATCATAATGC [XGTACX_site7656] — lower, 7.11
- CAATTAAAAAATAATACATGCATATAAATAGATATT [TGCATGCA_site427] — lower, 6.88
- TATGAAGTGCACAATACACACTAATTCTATATAAAT [CACACA_site7269] — higher, 11.2
- TAAGAATACGAAAGGTGTACACTGTGGAGACTTCAA [XGTACX_site2619] — lower, 7.36
- TTGCACTCGTAAAAAGCACACATATAAAAACATTTA [CACACA_site7997] — lower, 8.15
- TTAAAAATGTTATAATGTACATATAATATTTTATGA [XGTACX_site5954] — lower, 7.01
- ATTATAAATATAAATATAAATATATATTGTTCCGCA [TGCATGCA_negctrl_site470] — lower, 6.6
- TTTATCCTTCTTTTGAGTACTCAAAGAGACCTATAA [XGTACX_site8050] — lower, 7.36
- AAAAAAAACAGACACACACACAAATATTTATATATC [CACACA_site6342] — lower, 6.89
- TATATATATATATATATATATATTTTTATTATATAT [XGTACX_negctrl_site89] — higher, 9.32
- ATTATAAATAAAATATGTACATATGTATAAATACAT [XGTACX_site4002] — lower, 7.05
- AAAACACATACTATATGTACATATAATAATTTATAT [XGTACX_site4525] — lower, 7.09
- AAGAAAAAAAAAAAAAAAAAAAAAAAAAAAAAAAAA [TGCATGCA_negctrl_site263] — lower, 7.12
- TTCTGTATATAGTGTGCACACAATTAAAAAAAAAAA [CACACA_site8400] — higher, 9.67
- TAATGTACTTAAACCGCACACATATAAAAAAATAAA [CACACA_site8926] — lower, 7.64
